According to patent US20250297021A1 (SHANDONG SIMCERE BIOPHARMACEUTICAL CO NO 1, published 2025):

T1: BCMA expressed endogenously on U266 and H929 cells (UniProt Q02223 1-184, limits assumed)
T1 construct: whole, on cells; The cell line (U266 or H929) is named under assay in each row; also called B cell maturation antigen; CD269
T1 sequence (looked up): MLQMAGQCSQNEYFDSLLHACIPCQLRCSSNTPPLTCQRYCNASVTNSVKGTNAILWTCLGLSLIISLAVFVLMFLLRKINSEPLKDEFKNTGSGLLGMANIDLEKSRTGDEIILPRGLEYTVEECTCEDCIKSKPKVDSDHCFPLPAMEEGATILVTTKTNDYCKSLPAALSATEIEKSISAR

B1: BCMA-05 VL3VH1 (Fc fusion)
scFv: EVQLVQSGAEVKKPGSSVKVSCKASGYMFTDHTFHWVRQAPGQGLEWMGYIYPRDDNTKYNEKFKGRVTITADKSTSTAYMELSSLRSEDTAVYYCARAGYYGSSHAMDYWGQGTTVTVSSGGGGSGGGGSGGGGSDIVMTQSPDSLAVSLGERATINCKASQDVSTAVAWYQQKPGQSPRLLIYSASSRYTGVPDRFSGSGSGTDFTLTISSLQAEDVAVYYCQQLYSTPWTFGGGTKVEIK[human IgG1 Fc with C220S (EU numbers) not spelt out]
notes: humanized scFv-Fc
B2: BCMA-05 VL3VH4 (Fc fusion)
scFv: B1 scFv with I70L
notes: humanized scFv-Fc
B3: BCMA-05 VL3VH2 (Fc fusion)
scFv: B1 scFv with V2G, L4M
notes: humanized scFv-Fc
B4: BCMA-05 VL3VH3 (Fc fusion)
scFv: B1 scFv with V37M
notes: humanized scFv-Fc
B5: BCMA-04 VL2VH2 (Fc fusion)
scFv: EVQLVQSGAEVKKPGSSVKVSCKASGYSFTSYGISWVRQAPGQGLEWMGEIYPRDDITYYNEKFKGRVTITADKSTSTAYMELSSLRSEDTAVYYCARHDYYYVNSVSAMDYWGQGTTVTVSSGGGGSGGGGSGGGGSDIQMTQSPSSLSASVGDRVTITCKSSQSLLYSSNQKNYLAWYQQKPGKSPKLLIYWASTRYSGVPSRFSGSGSGTDFTLTISSLQPEDFATYYCQQYYIYPWTFGGGTKVEIK[human IgG1 Fc with C220S (EU numbers) not spelt out]
B6: BCMA-04 VL2VH5 (Fc fusion)
scFv: B5 scFv with Q39L
notes: humanized scFv-Fc
B7: BCMA-04 VL2VH1 (Fc fusion)
scFv: B5 scFv with S28T, T30S
B8: BCMA-04 VL2VH4 (Fc fusion)
scFv: B5 scFv with V5Q
B9: BCMA-01 VL1VH3 (Fc fusion)
scFv: EVKLVESGGGLVQPGGSLRLSCAASGFTFSDFYMYWVRQAPEKRLEWVAYITNGGENTYFPDTVKGRFTISRDNAKNSLYLQMNSLRAEDTAVYYCARQNPFYYYDSNYDYAMDFWGQGTTVTVSSGGGGSGGGGSGGGGSDVVMTQSPLSLPVTLGQPASISCKSSQSLLYSNGKTYLSWLFQRPGQSPRRLIYLVSELDSGVPDRFSGSGSGTDFTLKISRVEAEDVGVYYCVQGTHFPHTFGGGTKVEIK[human IgG1 Fc with C220S (EU numbers) not spelt out]
notes: humanized scFv-Fc
B10: BCMA-04 VL1VH2 (Fc fusion)
scFv: EVQLVQSGAEVKKPGSSVKVSCKASGYSFTSYGISWVRQAPGQGLEWMGEIYPRDDITYYNEKFKGRVTITADKSTSTAYMELSSLRSEDTAVYYCARHDYYYVNSVSAMDYWGQGTTVTVSSGGGGSGGGGSGGGGSDIVMTQSPDSLAVSLGERATINCKSSQSLLYSSNQKNYLAWYQQKPGQSPKLLIYWASTRYSGVPDRFSGSGSGTDFTLTISSLQAEDVAVYYCQQYYIYPWTFGGGTKVEIK[human IgG1 Fc with C220S (EU numbers) not spelt out]
B11: BCMA-04 VL1VH3 (Fc fusion)
scFv: B10 scFv with I70L
B12: BCMA-04 VL1VH5 (Fc fusion)
scFv: B10 scFv with Q39L
notes: humanized scFv-Fc
B13: BCMA-04 VL1VH4 (Fc fusion)
scFv: B10 scFv with V5Q
B14: BCMA-04 VL1VH1 (Fc fusion)
scFv: B10 scFv with S28T, T30S
B15: BCMA-03 VL2VH2 (Fc fusion)
scFv: EVQLVQSGSELKKPGASVKVSCKASGYTFTNYAMTWVRQAPGQGLEWMGWIDTYSGVPTYADDFKGRFVFSLETSASTAYLQISSLKAEDTAVYYCARVGVYGGYDTLDSWGQGTTVTVSSGGGGSGGGGSGGGGSDIQMTQSPSSLSASVGDRVTITCSASQGISNHLNWYQQKPDKTVKLLIYYTSSLHSGVPSRFSGSGSGTDFTLTISSLQPEDFATYYCQQYNNLPWTFGGGTKVEIK[human IgG1 Fc with C220S (EU numbers) not spelt out]
notes: humanized scFv-Fc
B16: BCMA-03 VL3VH1 (Fc fusion)
scFv: B15 scFv with E73D, A76V, K178G
notes: humanized scFv-Fc
B17: BCMA-03 VL3VH3 (Fc fusion)
scFv: B15 scFv with Q3P, K178G
notes: humanized scFv-Fc
B18: BCMA-03 VL2VH1 (Fc fusion)
scFv: B15 scFv with E73D, A76V
notes: humanized scFv-Fc
B19: BCMA-03 VL2VH3 (Fc fusion)
scFv: B15 scFv with Q3P
notes: humanized scFv-Fc
B20: BCMA-03 VL1VH2 (Fc fusion)
scFv: B15 scFv with D177G, T179A
notes: humanized scFv-Fc
B21: BCMA-03 VL1VH3 (Fc fusion)
scFv: B15 scFv with Q3P, D177G, T179A
notes: humanized scFv-Fc
B22: BCMA-03 VL1VH1 (Fc fusion)
scFv: B15 scFv with E73D, A76V, D177G, T179A
notes: humanized scFv-Fc
B23: BCMA-03 VL3VH2 (Fc fusion)
scFv: B15 scFv with K178G
notes: humanized scFv-Fc
B24: BCMA-07 VL1VH2 (Fc fusion)
scFv: EVQLVQSGAEVKKPGSSVKVSCKASGYTFTDYWTHWVRQAPGQGLEWMGYINHGSGYTKYNQKFKDRVTLTADKSTSTAYMELSSLRSEDTAVYYCARLTGSYYFDYWGQGTTVTVSSGGGGSGGGGSGGGGSDIQMTQSPSSLSASVGDRVTITCSASSSVSYMHWYQQKPGKSPKRLIYDTSKLASGVPSRFSGSGSGTEFTLTISSLQPEDFATYYCQQWSSNPLTFGQGTKLEIK[human IgG1 Fc with C220S (EU numbers) not spelt out]
notes: humanized scFv-Fc
B25: BCMA-07 VL2VH1 (Fc fusion)
scFv: B24 scFv with L70I, L179W
notes: humanized scFv-Fc

These binders were tested against T1, BCMA expressed endogenously on U266 and … (assay: FACS on U266 cells).
Protocol: (§1) The desired cells were scale-up cultured in T-75 cell culture flasks to the logarithmic growth phase, and the cells were pipetted into a single cell suspension. After the cells were counted, the cells were centrifuged and the cell pellet was resuspended in FACS buffer (PBS+2% fetal calf serum) to 2×10⁶ cells per ml, and the suspension was added to the 96-well FACS reaction plate at 50 μl per well, then the sample to be tested of the chimeric antibody was added at 50 μl per well and the mixture was incubated at 4° C. for 1 h. The obtained mixture was centrifuged and washed 3 times with a PBS buffer. […] The obtained mixture was centrifuged and washed 3 times with a PBS buffer. 100 μl of the mixture was taken for detection and result analysis by FACS (FACS Canto™, purchased from BD Company). Data analysis was performed by software (FlowJo) to obtain the mean fluorescence intensity (MFI) of the cells. Then, a software (GraphPad Prism8) was used for analysis, data fitting and EC50 calculation. The results are shown in Table 10 and FIGS. 10A-10B, FIGS. 11A-11B, and FIGS. 12A-12B. All seven chimeric antibodies bind to three types of BCMA-expressing endogenous cells.
(§2) The specific method was the same as that in Example 5 (C). First, the binding of humanized antibodies to U266 cells was detected. Based on the results, some humanized antibodies were selected and tested for binding to H929 cells. The remaining humanized antibodies were not tested for binding to H929 cells by FACS (indicated by “/” in the table). All humanized antibodies bind to U266 cells, and all humanized antibodies that bind to the H929 cell in the test bind to H929 cells.

In order of falling EC50:
1. B11  66.5 nM
2. B14  62.8 nM
3. B22  46.5 nM
4. B10  43.7 nM
5. B13  39.1 nM
6. B12  36.1 nM
7. B3  34.5 nM
8. B20  30.3 nM
9. B4  24.1 nM
10. B6  23.9 nM
11. B8  23.2 nM
12. B18  22.3 nM
13. B2  22 nM
14. B17  20.8 nM
15. B21  20.7 nM
16. B16  19.7 nM
17. B19  18.9 nM
18. B23  17.7 nM
19. B15  17.6 nM
20. B5  17.3 nM
21. B1  17.2 nM
22. B7  14.4 nM
23. B9  13.8 nM

In order of rising “Maximum mean fluorescence intensity” value:
1. B1  1790
2. B2  2000
3. B3  2170
4. B4  2270
5. B11  2970
6. B14  2980
7. B10  3000
8. B12  3080
9. B13  3150
10. B20  3300
11. B18  3320
12. B23  3330
13. B6  3350
14. B16  3350
15. B15  3360
16. B22  3370
17. B17  3390
18. B19  3390
19. B8  3490
20. B21  3500
21. B5  3530
22. B7  3600
23. B9  4000
24. B24  4250

The binders below were run against T1, BCMA expressed endogenously on U266 and … (assay: FACS on H929 cells).
Protocol: as §1, §2

In order of rising EC50:
1. B4  14.8 nM
2. B1  15.1 nM
3. B3  20.4 nM
4. B5  21.2 nM
5. B2  27.8 nM
6. B24  126 nM
7. B25  134 nM

In order of falling “Maximum mean fluorescence intensity” value:
1. B25  32500
2. B24  20700
3. B4  13600
4. B3  13400
5. B2  12900
6. B1  12000
7. B5  3460

Substitutions are numbered along the chain they refer to.
